According to the supplement of paper PMC8728848:
Some of the results follow.

Columns and labels:
Assay in all cases: glycan array binding signal (z-score within array); higher = stronger binding
Conditions in all cases: glycan notation: IUPAC condensed, linker removed
[1] = target: GalNAc(b1-4)GlcNAc(b1-2)Man
Outline: (§1)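 Glycan array data were curated from 3228 arrays in the Consortium for Functional Glycomics database and kept only where the protein sequence was available. Glycan names were converted to IUPAC-condensed notation, and columns mapping to the same glycan were averaged. The binding signal is a within-array Z-score, averaged across arrays of the same protein sequence at different concentrations or buffers and across linkers. Negative Z-scores can be read as non-binding.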

[2] = target: GalNAc(b1-4)GlcNAc(b1-2)Man(a1-3)[GalNAc(b1-4)GlcNAc(b1-2)Man(a1-6)]Man(b1-4)GlcNAc(b1-4)GlcNAc
Outline: as §1

[3] = target: GalNAc(b1-4)GlcNAc(b1-3)GalNAc(b1-4)GlcNAc
Outline: as §1

GalNAc(b1-4)GlcNAc6S = target: GalNAc(b1-4)GlcNAc6S
Outline: as §1

GalNAc(b1-6)GalNAc = target: GalNAc(b1-6)GalNAc
Outline: as §1

GalNAc3S(b1-4)GlcNAc = target: GalNAc3S(b1-4)GlcNAc
Outline: as §1

GalNAc3S(b1-4)GlcNAc3S = target: GalNAc3S(b1-4)GlcNAc3S
Outline: as §1

[4] = target: GalNAc3S(b1-4)[Fuc(a1-3)]GlcNAc
Outline: as §1

GalNAc4S6S(b1-4)GlcNAc = target: GalNAc4S6S(b1-4)GlcNAc
Outline: as §1

GalNAc6S(b1-4)GlcNAc = target: GalNAc6S(b1-4)GlcNAc
Outline: as §1

Glc(a1-4)Glc = target: Glc(a1-4)Glc
Outline: as §1

[5] = target: Glc(a1-4)Glc(a1-4)Glc(a1-4)Glc
Outline: as §1

Glc(a1-6)Glc(a1-6)Glc = target: Glc(a1-6)Glc(a1-6)Glc
Outline: as §1

[6] = target: Glc(a1-6)Glc(a1-6)Glc(a1-6)Glc
Outline: as §1

Glc(b1-4)Glc = target: Glc(b1-4)Glc
Outline: as §1

Glc(b1-6)Glc = target: Glc(b1-6)Glc
Outline: as §1

GlcA(b1-3)Gal = target: GlcA(b1-3)Gal
Outline: as §1

GlcA(b1-3)GlcNAc = target: GlcA(b1-3)GlcNAc
Outline: as §1

GlcA(b1-6)Gal = target: GlcA(b1-6)Gal
Outline: as §1

[7] = target: GlcA3S(b1-3)Gal(b1-4)GlcNAc(b1-2)Man
Outline: as §1

[8] = target: GlcA3S(b1-3)Gal(b1-4)GlcNAc(b1-3)Gal(b1-4)Glc
Outline: as §1

[9] = target: GlcNAc(a1-3)Gal(b1-4)GlcNAc
Outline: as §1

[10] = target: GlcNAc(a1-4)Gal(b1-3)GlcNAc
Outline: as §1

[11] = target: GlcNAc(a1-4)Gal(b1-4)GalNAc
Outline: as §1

[12] = target: GlcNAc(a1-4)Gal(b1-4)GlcNAc
Outline: as §1

[13] = target: GlcNAc(a1-4)Gal(b1-4)GlcNAc(b1-3)Gal(b1-4)Glc
Outline: as §1

[14] = target: GlcNAc(a1-4)Gal(b1-4)GlcNAc(b1-3)Gal(b1-4)GlcNAc
Outline: as §1

[15] = target: GlcNAc(a1-4)Gal(b1-4)GlcNAc(b1-3)Gal(b1-4)GlcNAc(b1-3)Gal(b1-4)GlcNAc
Outline: as §1

[16] = target: GlcNAc(a1-4)Gal(b1-4)GlcNAc(b1-3)Gal(b1-4)[Fuc(a1-3)]GlcNAc(b1-3)Gal(b1-4)[Fuc(a1-3)]GlcNAc
Outline: as §1

[17] = target: GlcNAc(a1-6)Gal(b1-4)GlcNAc
Outline: as §1

B1: PX9896A-bth-573-26-573 (Bacteroides thetaiotaomicron) (protein)
chain: ETNNLKTKEDMYKYFGTSKSMLTHVYSYMPQGYQLFATSGGIFTEDRYSMRDCASDDGEFGAYADNIQNTNNGNWSPIKTYDDSWTLYRGIRAANSFIAEIAQVDFTRYEHDGQYTNWMKQLKYFPYEARVLRAHYFFELARRYGDIAMPLEVLTEEEANTIGKTPFSEVISFIVSECDDAANNLPDSYVNEPGAEIGRVTKGFAMAVKSKALLYAASKLHNPSMDTELWKKSAKAAIDIINTGLYSLDPQESANNLDSKEVVLMRINGDDSDFEMFNLPLRMTAGTRTSSLIPYSNYPSQNLVDAFETVNGYKVTLENTGWVCEDPAFDPQSPYENRDKRFYRAILANGMSFKDYTIETFKGGADDGIVSQGGSPTGYFLRKYIQEATSFEPGKEAVSKHHWVIYRYAETLLTYAESMVNAFNDVNYTDETYKYSALWAINEVRKNADMPLIPSMGKDEFMERLYNEWRVEFAFEDHRFWDVRRWKIADTTQRELYGVKIEKQADGTFNFYKNLYETRNWRDCMYLYPIPQSELYKNTNLNPQNTGW
With B1 the “glycan array binding signal (z-score)” value [1] was -0.396, the “glycan array binding signal (z-score)” value [2] was 0.273 and the “glycan array binding signal (z-score)” value [3] was -0.28. For the same binder, the “glycan array binding signal (z-score)” value (GalNAc(b1-4)GlcNAc6S) was 0.027, the “glycan array binding signal (z-score)” value (GalNAc(b1-6)GalNAc) was 0.201 and the “glycan array binding signal (z-score)” value (GalNAc3S(b1-4)GlcNAc) was -0.145. The “glycan array binding signal (z-score)” value (GalNAc3S(b1-4)GlcNAc3S) was -0.744, the “glycan array binding signal (z-score)” value [4] was -0.603 and the “glycan array binding signal (z-score)” value (GalNAc4S6S(b1-4)GlcNAc) was -0.36. For the same binder, the “glycan array binding signal (z-score)” value (GalNAc6S(b1-4)GlcNAc) was -0.663, the “glycan array binding signal (z-score)” value (Glc(a1-4)Glc) was 0.296 and the “glycan array binding signal (z-score)” value [5] was -0.34. For the same binder, the “glycan array binding signal (z-score)” value (Glc(a1-6)Glc(a1-6)Glc) was 0.41, the “glycan array binding signal (z-score)” value [6] was -0.252 and the “glycan array binding signal (z-score)” value (Glc(b1-4)Glc) was 0.069. For the same binder, the “glycan array binding signal (z-score)” value (Glc(b1-6)Glc) was -0.484, the “glycan array binding signal (z-score)” value (GlcA(b1-3)Gal) was -0.391 and the “glycan array binding signal (z-score)” value (GlcA(b1-3)GlcNAc) was -0.127. The “glycan array binding signal (z-score)” value (GlcA(b1-6)Gal) was -0.573, the “glycan array binding signal (z-score)” value [7] was -0.777 and the “glycan array binding signal (z-score)” value [8] was -0.272. The “glycan array binding signal (z-score)” value [9] was 0.441, the “glycan array binding signal (z-score)” value [10] was -0.08 and the “glycan array binding signal (z-score)” value [11] was 0.484. For the same binder, the “glycan array binding signal (z-score)” value [12] was 0.48, the “glycan array binding signal (z-score)” value [13] was -0.859 and the “glycan array binding signal (z-score)” value [14] was 0.138. The “glycan array binding signal (z-score)” value [15] was -0.364, the “glycan array binding signal (z-score)” value [16] was -0.534 and the “glycan array binding signal (z-score)” value [17] was -0.484.
